# Experimental data: article PMC4336329 (PLoS ONE, 2015)
# Out of some 310,000 compounds screened, about 14,000 (4.5%) showed an effect of 50% or more. Effects have a minus sign here. The list shows a part of the results.
# Biological target: human ether-à-go-go-related gene (hERG) potassium channel (human, UniProt Q12809)
# Experiment: primary screen, population patch clamp on CHO cells stably expressing hERG
# 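Further: peak tail current of the secondary pulse compared with the same well before compound.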
# Sequence of human ether-à-go-go-related gene (hERG) potassium channel (Q12809 whole entry, looked up): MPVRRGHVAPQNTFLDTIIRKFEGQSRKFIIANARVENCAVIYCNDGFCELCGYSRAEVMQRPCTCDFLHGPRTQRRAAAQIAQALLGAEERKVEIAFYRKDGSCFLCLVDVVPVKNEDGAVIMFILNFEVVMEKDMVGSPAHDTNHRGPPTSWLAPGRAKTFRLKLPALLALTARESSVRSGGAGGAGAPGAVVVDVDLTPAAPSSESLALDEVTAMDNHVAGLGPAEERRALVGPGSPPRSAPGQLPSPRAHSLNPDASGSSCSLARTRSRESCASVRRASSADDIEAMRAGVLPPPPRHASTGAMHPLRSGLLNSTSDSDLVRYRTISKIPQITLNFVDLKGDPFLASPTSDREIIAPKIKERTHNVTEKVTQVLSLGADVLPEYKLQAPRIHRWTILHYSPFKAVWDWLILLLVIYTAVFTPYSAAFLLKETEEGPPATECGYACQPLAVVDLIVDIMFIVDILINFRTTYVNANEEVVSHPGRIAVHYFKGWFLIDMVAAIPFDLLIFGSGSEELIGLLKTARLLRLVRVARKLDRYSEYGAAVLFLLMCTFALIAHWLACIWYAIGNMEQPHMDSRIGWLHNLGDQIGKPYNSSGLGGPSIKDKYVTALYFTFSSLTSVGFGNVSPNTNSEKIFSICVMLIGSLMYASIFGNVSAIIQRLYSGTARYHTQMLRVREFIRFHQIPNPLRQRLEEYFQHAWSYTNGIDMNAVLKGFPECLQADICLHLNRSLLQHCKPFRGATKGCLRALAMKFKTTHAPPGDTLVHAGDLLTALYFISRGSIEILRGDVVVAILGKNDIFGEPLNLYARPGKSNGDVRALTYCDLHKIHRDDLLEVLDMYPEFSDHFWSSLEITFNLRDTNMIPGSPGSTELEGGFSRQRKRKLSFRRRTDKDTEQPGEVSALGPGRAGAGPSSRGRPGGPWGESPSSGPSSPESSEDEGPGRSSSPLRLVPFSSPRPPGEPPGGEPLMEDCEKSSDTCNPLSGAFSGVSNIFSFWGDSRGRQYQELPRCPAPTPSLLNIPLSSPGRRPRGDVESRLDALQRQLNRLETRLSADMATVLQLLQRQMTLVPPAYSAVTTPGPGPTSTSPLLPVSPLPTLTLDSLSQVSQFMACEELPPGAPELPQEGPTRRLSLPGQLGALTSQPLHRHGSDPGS
row,Compound,"hERG current change (%, negative = inhibition) at 10uM [%]"
1,CCOc1ccc2nc(NS(C)(=O)=O)sc2c1,17.8
2,Cc1cccc(NC(=O)CN2CCC(C(=O)c3ccc4c(c3)OCCO4)CC2)c1,-54.2
3,COC(=O)c1sc2cc([N+](=O)[O-])cc(SCC(C)C)c2c1N,9.06
4,Cc1cc(N2C(=O)C(O)=C(C(=O)c3ccc(C)o3)C2c2cccs2)no1 (stereo not drawn),3.86
5,CCCCCCCCCC(=O)N1CCN(c2cc3c(cc2F)c(=O)c(C(=O)O)cn3CC)CC1,12.2
6,CCOc1ccc(N2C(=O)CC(N(Cc3ccco3)C(C)=O)C2=O)cc1 (stereo not drawn),0.345
7,CCN(CC)C(=O)COc1cc(C)c(Cl)c(C)c1,-5.91
8,CCC(NC(=O)c1ccccc1O)c1ccccc1 (stereo not drawn),-33.3
9,N#C/C(=N\Nc1ccc(Cl)cc1)C(N)=S,16
10,O=C(CCOc1ccccc1)NCc1ccccc1,-3.68
11,Cc1cccc2cc(CN(Cc3cccnc3)C(=O)c3ccncc3)c(=O)[nH]c12,-12.1
12,O=C(c1ccc(Cl)cc1)c1cnc(-c2ccc(Cl)cc2)s1,-3.48
13,Cc1ccc(NC(=O)COC(=O)C2CC(=O)N(Cc3ccccc3)C2)cc1F (stereo not drawn),0.175
14,O=C(OCC(=O)N1CCN(C(=O)c2ccco2)CC1)c1ccccc1,10.4
15,CC1(C)C(=O)Nc2ccccc2N1C(=O)COC(=O)/C=C/c1ccc(OC(F)F)cc1,26.4
16,Cc1cc2nc(SCCN3CCOCC3)[nH]c2cc1C,12.3
17,COC(=O)c1ccc(-c2cc(CC3(C(=O)OC)CCN(C(=O)OC(C)(C)C)CC3)on2)cc1,-17.9
18,C[C@@H]1[C@H](O)C[C@@]23COC(=O)C2=CCCC3[C@@]1(C)CCC1COC(=O)C1 (stereo partly drawn),-13.4
19,O=C(Nc1cccc2ncccc12)c1ccccc1F,15.7
20,CCCCCCc1nc2c(=O)[nH]c3ccccc3c2o1,12.5
21,OCC1(CCOc2ccccc2)CCN(Cc2ccc3c(c2)OCCO3)CC1,-75.1
22,N#CC1(NC(=O)COC(=O)CSc2ccc(F)cc2)CCCCC1,11.7
23,O=C(O)[C@H]1CCCC[C@H]1C(=O)Nc1ccc(S(=O)(=O)N2CCOCC2)cc1,11.2

row,Compound,"hERG current change (%, negative = inhibition) at 10uM [%]"
1,Cc1ccc(NC(=O)C2CCC(CNc3c(N4CCC(C)CC4)c(=O)c3=O)CC2)cc1F (stereo not drawn),14.3
2,O=C(NCCc1ccccn1)c1cc2ccccc2o1,21.5
3,O=C(Nc1ccc(S(=O)(=O)Nc2ncccn2)cc1)c1ccccc1Br,0.459
4,O=C(Nc1ccccc1)c1cc2ccccc2c(=O)s1,3.74
5,Cc1ccc(NC(=O)CN(C)S(=O)(=O)c2cccc3nsnc23)cc1C,15.9
6,COc1ccc(S(=O)(=O)N(C)C)cc1NC(C)C(=O)Nc1cccc(C#N)c1 (stereo not drawn),-23.5
7,CC(=O)Nc1ccc(S(=O)(=O)NCCC(=O)OCCN2C(=O)c3ccccc3C2=O)cc1,6.14
8,Clc1ccc(-n2nnnc2CN2CCCCC2)cc1Cl,-5.69
9,CC(=O)C1=C(O)C(=O)N(Cc2ccccc2)C1c1ccc(Br)cc1 (stereo not drawn),6.34
10,COC1(C2=NCCN2)COc2ccccc2O1.Cl (stereo not drawn),17.3
11,O=C(COc1ccc(S(=O)(=O)N2CCCC2)cc1)N1CCCCC1,12.3
12,Cc1ccc2nc(-c3ccccn3)cc(C(=O)Nc3ccc4c(c3)OCO4)c2c1,20.6
13,Cc1cc(N2CCN(C)CC2)nc2ccc(NC(=O)CCC3CCCC3)cc12,-74.6
14,CCC(=O)Oc1ccc(C(=O)Nc2ccc3c(c2)OCO3)cc1,16.5
15,O=C(Oc1c(Cl)cc(Cl)c2cccnc12)N1CCOCC1,-9.04
16,CCC(C(=O)NCc1cccc(C)c1)n1nc(C)c2c(C)n(-c3ccccc3)nc2c1=O (stereo not drawn),-21.8
17,CCOc1ccc(CCNC(=O)COC(=O)c2ccc(S(C)(=O)=O)cc2)cc1OCC,7.31
18,CCC1CCCCN1C(=O)CCn1c(=O)oc2ccccc21 (stereo not drawn),-17.7
19,COCCNC(=O)c1ccc(Cl)c(S(=O)(=O)Nc2cccc(C)c2C)c1,-5.86
20,Cc1cc(C)cc(NC(=O)CSc2nncn2-c2ccccn2)c1,0.338
21,COc1cc(OC)c2ccc(=O)oc2c1C(CC(=O)N1CCOCC1)c1ccc2c(c1)OCO2 (stereo not drawn),-0.731
22,C/C(=N\NC(=O)C(NC(=O)c1ccccc1)C(C)C)c1ccccc1 (stereo not drawn),21.2
